# Data from US10889573B2, “Anthelmintic quinoline-3-carboxamide derivatives” (Bayer Animal Health GMBH, priority 2016, dated 2021).
# Some of these results come from one statement about several compounds together. For at least one compound, name, drawing or mass did not settle the structure.
# Tested on: Nippostrongylus brasiliensis
# Experiment: In vitro assay 2: Nippostrongylus brasiliensis (NIPOBR), acetylcholine esterase readout
# Conditions: 1 μg/ml
# Experimental: In Vitro Assay 2: Nippostrongylus brasiliensis (NIPOBR)
# Adult Nippostrongylus brasiliensis were washed with saline buffer containing 100 U/ml penicillin, 0.1 mg/ml streptomycin and 2.5 μg/ml amphotericin B. Test compounds were dissolved in DMSO and worms were incubated in medium in a final concentration of 10 μg/ml (10 ppm) respectively 1 μg/ml (1 ppm). An aliquot of the medium was used to determine the acetylcholine esterase activity in comparison to a negative control. The principle of measuring acetylcholine esterase as readout for anthelmintic activity was described in Rapson et al (1986) and Rapson et al (1987).
row,SMILES,activity (reduction of AChE compared to negative control)
1,O=C(N[C@H]1CCOc2ccccc21)c1cnc2c(-c3cccc(F)c3Cl)cc(F)cc2c1N1CCOCC1 [Example 161],higher than 80%
2,O=C(N[C@H]1CCOc2ccccc21)c1cnc2c(-c3ccc(F)cc3Cl)cc(F)cc2c1N1CCOCC1 [Example 165],higher than 80%
3,CC(C)(C)OC(=O)CNc1c(C(=O)N[C@H]2CCOc3ccccc32)cnc2c(-c3cc(Cl)cc(Cl)c3)cccc12 [Example 182],higher than 80%
4,NCCNc1c(C(=O)N[C@H]2CCOc3ccccc32)cnc2c(-c3cc(Cl)cc(Cl)c3)cccc12 [Example 185],higher than 80%
5,O=C(N[C@H]1CCOc2ccccc21)c1cnc2c(-c3cc(Cl)cc(Cl)c3)cccc2c1N1CC[C@@H](O)C1 [Example 186],higher than 80%
6,O=C(N[C@H]1CCOc2ccccc21)c1cnc2c(-c3cc(Cl)cc(Cl)c3)cccc2c1N1CC[C@H](O)C1 [Example 187],higher than 80%
7,O=C(N[C@H]1CCOc2ccccc21)c1cnc2c(-c3ccc(F)c(Cl)c3)cccc2c1N1CCOCC1 [Example 190],higher than 80%
8,Cc1cc(F)cc(-c2cccc3c(N4CCOCC4)c(C(=O)N[C@H]4CCOc5ccccc54)cnc23)c1 [Example 225],higher than 80%
9,O=C(N[C@H]1CCOc2ccccc21)c1cnc2c(-c3cc(F)ccc3Cl)cccc2c1N1CCOCC1 [Example 227],higher than 80%
10,Cc1cc(F)c(-c2cccc3c(N4CCOCC4)c(C(=O)N[C@H]4CCOc5ccccc54)cnc23)cc1Cl [Example 231],higher than 80%
11,O=C(N[C@H]1CCOc2ccccc21)c1cnc2c(-c3cc(Cl)cc(Cl)c3)c(C(F)(F)F)ccc2c1N1CCOCC1 [Example 233],higher than 80%
12,CN(c1c(C(=O)N[C@H]2CCOc3ccccc32)cnc2c(-c3cc(Cl)cc(Cl)c3)cccc12)C1CC1 [Example 254],higher than 80%
13,CN(C)c1c(C(=O)N[C@H]2CCOc3ccccc32)cnc2c(-c3cc(Cl)cc(Cl)c3)c(C(F)(F)F)ccc12 [Example 256],higher than 80%
14,COC(=O)[C@H]1CCCN1c1c(C(=O)N[C@H]2CCOc3ccccc32)cnc2c(-c3cc(Cl)cc(Cl)c3)cccc12 [Example 263],higher than 80%
15,CCNc1c(C(=O)N[C@H]2CCOc3ccccc32)cnc2c(-c3cc(Cl)cc(Cl)c3)cccc12 [Example 265],higher than 80%
16,CN(C)c1c(C(=O)N[C@H]2CCOc3ccccc32)cnc2c(-c3c(F)cccc3F)c(F)ccc12 [Example 279],higher than 80%
17,COC(=O)C1CCN(c2c(C(=O)NC3CCOc4ccccc43)cnc3c(-c4cc(Cl)cc(Cl)c4)cccc23)C1 (centres unmarked) [Example 282],higher than 80%
18,O=C(N[C@H]1CCOc2ccccc21)c1cnc2c(-c3cc(Cl)cc(Cl)c3)cccc2c1N1CC[C@H](O)C1 [Example 284],higher than 80%
19,CCOP(=O)(CN(C)c1c(C(=O)N[C@H]2CCOc3ccccc32)cnc2c(-c3cc(Cl)cc(Cl)c3)cccc12)OCC [Example 285],higher than 80%
20,O=C(N[C@H]1CCOc2ccccc21)c1cnc2c(-c3cc(Cl)cc(Cl)c3)cccc2c1N1CCC[C@@H]1CO [Example 288],higher than 80%
21,CC1(C)C(N)C1Nc1c(C(=O)NC2CCOc3ccccc32)cnc2c(-c3cc(Cl)cc(Cl)c3)cccc12 (centres unmarked) [Example 289],higher than 80%
22,O=C(N[C@H]1CCOc2ccccc21)c1cnc2c(-c3cc(Cl)cc(Cl)c3)cccc2c1N1CC2COCC(C1)O2 [Example 301],higher than 80%
23,CN(C)c1c(Cl)cc(-c2cccc3c(N(C)C)c(C(=O)N[C@H]4CCOc5ccccc54)cnc23)cc1Cl [Example 308],higher than 80%
24,CN(C)c1ccc(-c2cccc3c(N(C)C)c(C(=O)N[C@H]4CCOc5ccccc54)cnc23)cc1Cl [Example 311],higher than 80%
25,O=C(N[C@H]1CCOc2ccccc21)c1cnc2c(-c3c(F)cccc3F)cccc2c1N1CCOCC1 [Example 313],higher than 80%
26,O=C(N[C@H]1CCOc2ccccc21)c1cnc2c(-c3ccccc3Cl)cccc2c1N1CCOCC1 [Example 319],higher than 80%

row,SMILES,activity (reduction of AChE compared to negative control)
1,Cn1c(=O)n(C)n(-c2c(C(=O)N[C@H]3CCOc4ccccc43)cnc3c(-c4cccc(Cl)c4Cl)cccc23)c1=O [Example 321],higher than 80%
2,CCOc1c(C(=O)N[C@H]2CCc3ccccc32)cnc2c(-c3cc(Cl)cc(Cl)c3)cccc12 [Example 334],higher than 80%
3,CC(C)Oc1c(C(=O)N[C@H]2CCc3ccccc32)cnc2c(-c3cc(Cl)cc(Cl)c3)cccc12 [Example 336],higher than 80%
4,O=C(N[C@H]1CCOc2ccccc21)c1cnc2c(-c3cc(Cl)cc(Cl)c3)cccc2c1OCCO [Example 340],higher than 80%
5,CC(C)(C)CCOc1c(C(=O)N[C@H]2CCc3ccccc32)cnc2c(-c3cc(Cl)cc(Cl)c3)cccc12 [Example 342],higher than 80%
6,Cc1cc(Cl)cc(-c2cccc3c(C)c(C(=O)N[C@H]4CCOc5ccccc54)cnc23)c1 [Example 352],higher than 80%
7,O=C(N[C@H]1CCOc2ccccc21)c1cnc2c(-c3cc(Cl)cc(Cl)c3)cccc2c1SCCO [Example 364],higher than 80%
8,CSc1cc(Cl)cc(-c2cccc3c(SC)c(C(=O)N[C@H]4CCOc5ccccc54)cnc23)c1 [Example 365],higher than 80%
9,CC[S+]([O-])c1c(C(=O)N[C@H]2CCOc3ccccc32)cnc2c(-c3cc(Cl)cc(Cl)c3)cccc12 (some centres unmarked) [Example 370],higher than 80%
10,O=C(N[C@H]1CCOc2ccccc21)c1cnc2c(-c3cc(Cl)cc(Cl)c3)cccc2c1-c1ccc(=O)[nH]c1 [Example 397],higher than 80%
11,CN(C)c1c(C(=O)N[C@H]2CCOc3ccccc32)cnc2c(-c3cc(F)nc(F)c3)cccc12 [Example 413],higher than 80%
12,CCOc1cc(-c2cccc3c(N(C)C)c(C(=O)N[C@H]4CCOc5ccccc54)cnc23)c(F)cn1 [Example 417],higher than 80%
13,Cc1cc(-c2cccc3c(C(C)C)c(C(=O)N[C@H]4CCOc5ccccc54)cnc23)c(C)s1 [Example 422],higher than 80%
14,Cc1cc(-c2c(F)ccc3c(C(C)C)c(C(=O)N[C@H]4CCOc5ccccc54)cnc23)c(C)s1 [Example 425],higher than 80%
15,CN(C)c1c(C(=O)N[C@H]2CCOc3ccccc32)cnc2c(-c3cc(Cl)cc(Cl)c3)cc(C#N)cc12 [Example 428],higher than 80%
16,CN(C)c1c(C(=O)N[C@H]2CCOc3ccccc32)cnc2c(-c3cc(Cl)cc(Cl)c3)cc(O)cc12 [Example 429],higher than 80%
17,CN(C)c1c(C(=O)N[C@H]2CCOc3ccccc32)cnc2c(-c3cc(C(F)(F)F)ccc3C(F)(F)F)cccc12 [Example 433],higher than 80%
18,O=C(N[C@H]1CCOc2ccccc21)c1cnc2c(-c3ccc(Cl)s3)cccc2c1N1CCOCC1 [Example 443],higher than 80%
19,Cc1ccc(C)c(-c2cccc3c(C(C)C)c(C(=O)N[C@H]4CCOc5ccccc54)cnc23)c1 [Example 447],higher than 80%
20,Cc1cc(F)cc(-c2cccc3c(C(C)C)c(C(=O)N[C@H]4CCOc5ccccc54)cnc23)c1 [Example 448],higher than 80%
21,CN(C)c1c(C(=O)N[C@H]2CCOc3ccccc32)cnc2c(-c3ccc(C(F)(F)F)s3)cccc12 [Example 458],higher than 80%
22,O=C(N[C@H]1CCOc2ccccc21)c1cnc2c(-c3cc(C(F)(F)F)ccc3C(F)(F)F)cccc2c1N1CCOCC1 [Example 461],higher than 80%
23,O=C(N[C@H]1CCOc2ccccc21)c1cnc2c(-c3cc(F)ccc3C(F)(F)F)cccc2c1N1CCOCC1 [Example 463],higher than 80%
24,Cc1ccc(F)cc1-c1cccc2c(N3CCOCC3)c(C(=O)N[C@H]3CCOc4ccccc43)cnc12 [Example 466],higher than 80%
25,Cc1ccc(C)c(-c2cccc3c(N4CCOCC4)c(C(=O)N[C@H]4CCOc5ccccc54)cnc23)c1 [Example 468],higher than 80%
26,COc1cc(-c2cccc3c(N(C)C)c(C(=O)N[C@H]4CCOc5ccccc54)cnc23)cc(OC)n1 [Example 472],higher than 80%

# Same assay, conditions: 10 μg/ml
row,SMILES,activity (reduction of AChE compared to negative control)
1,CCOc1c(C(=O)N[C@H]2CCc3ccccc32)cnc2c(-c3cc(Cl)cc(Cl)c3)cccc12 [Example 334],higher than 80%
2,O=C(N[C@H]1CCOc2ccccc21)c1cnc2c(-c3cc(Cl)cc(Cl)c3)cccc2c1OCCO [Example 340],higher than 80%
3,CC(C)Oc1c(C(=O)N[C@H]2CCc3ccccc32)cnc2c(-c3cc(Cl)cc(Cl)c3)cccc12 [Example 349],higher than 80%
4,O=C(N[C@H]1CCOc2ccccc21)c1cnc2c(-c3cc(Cl)cc(Cl)c3)cccc2c1SCCO [Example 364],higher than 80%
